The source of these data is PubChem BioAssay AID493208 (National Center for Advancing Translational Sciences (NCATS), 2011).

Each structure is given as a SMILES string. Screen size: about 44,000 compounds; about 340 (0.77%) were called active. About 5% were inconclusive and are not listed. Calls come from the whole dose curve; as a rule, active = well fitted inhibition curve with a large enough effect; inconclusive = small, poorly fitted or top-dose-only effect; inactive = flat fitted curve, though single readings scatter. Some of the results follow.
Potency is the fitted concentration of half-maximal effect.

This test is described as follows: Acumen qHTS Assay for Inhibitors of the mTORC1 Signaling Pathway in MEF (Tsc2-/-, p53-/-) Cells: Sytravon.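 For activity change, negative = inhibition: plate controls were DMSO for no effect and rapamycin for full effect.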 Note: nearly all actives have a fitted effect of over 50% in size. The following applies: phospho-rpS6 immunofluorescence/PI, 24 h; series mostly up to 38.3 µM; activity change, negative = inhibition: at the top concentration. In a few lines:
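Tsc2-/-, p53-/- mouse embryonic fibroblasts (empty-vector line) exposed to compound 24 hrs at 37 C, fixed, immunostained for phospho-rpS6 and counterstained with propidium iodide. Acumen laser scanning gives % positive cells from Alexa 488/PI ratio, thresholded using 7.5 nM rapamycin; PI count gives viability.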
For the compound `Cc1cn2c(=O)c(S(=O)(=O)Nc3ccc(F)cc3F)c(C)nc2s1`, the “activity change, negative = inhibition” value was inactive: 0.726%.

Take `O=C(NCCC1=CCCCC1)C1CCN(C(=O)N2CCOc3ccc(Cl)cc32)CC1`: the “activity change, negative = inhibition” value was inactive: -2.1%. With `CCOC(=O)CC(NC(=O)CCc1c(C)nc2ncnn2c1C)c1ccc(C)cc1` (stereo not given), the “activity change, negative = inhibition” value is inactive: 0.423%. For the compound `CCOc1ccc(C(=O)NCCc2csc(-c3cccc(F)c3)n2)cc1OCC`, the “activity change, negative = inhibition” value was inactive: -6%. Turning to `Oc1ccccc1Nc1nc2ccccc2n2nnnc12`, the “activity change, negative = inhibition” value is inactive: -4.28%.

With `O=C(NCc1ccc(Cl)cc1)c1ccc(Cn2c(=O)c3cccn3c3cccnc32)cc1`, the “activity change, negative = inhibition” value was inactive: 5.06%. On to `COc1ccc(S(=O)(=O)N2CCN(Cc3nc4ccc(C)cc4o3)CC2)cc1`, for which the “activity change, negative = inhibition” value was inactive: 0%. For `Cc1ccc(C)c(Nc2nnc(-c3ccc(C)c(S(=O)(=O)NCC4CCCO4)c3)c3ccccc23)c1` (stereo not given), the “activity change, negative = inhibition” value was inactive: -14.9%. Turning to `O=C(Cn1c(=O)n(Cc2nc(-c3ccccc3)no2)c(=O)c2ccccc21)Nc1cccc(Cl)c1`, the “activity change, negative = inhibition” value is inactive: -5.17%. With `O=C1CCc2cc(S(=O)(=O)NC(C(=O)Nc3cccc(F)c3)c3ccccc3)ccc2N1` (stereo not given), the “activity change, negative = inhibition” value was inactive: 2.25%. Regarding `COc1ccc(-c2c(C)c3ccc(O)c(CN4CCCC(C)C4)c3oc2=O)cc1OC` (stereo not given), the “activity change, negative = inhibition” value was inactive: -20.2%. With `COCCCNC(=O)c1ccc2c(c1)N(Cc1ccccc1F)C(=O)c1ccccc1S2=O` (stereo not given), the “activity change, negative = inhibition” value is inactive: 0.0606%. On to `COc1ccc(-c2nnc(SCC(=O)Nc3ccc(C)c(C)c3)s2)cc1`, for which the “activity change, negative = inhibition” value is inactive: -1.79%. With `CCc1ccccc1NC(=O)CCCN1C(=O)CCn2nc(-c3cn(C)c4ccccc34)cc21`, the “activity change, negative = inhibition” value is inactive: -7.22%.

As to `COc1cccc(NC(=O)c2oc3ccccc3c2NC(=O)C2CCCCC2)c1`, the “activity change, negative = inhibition” value is inactive: -4.95%. On to `COc1ccc(C(=O)/C=C/c2cn(CC(O)CN3CCc4ccccc43)c3ccccc23)cc1` (stereo not given), for which the “activity change, negative = inhibition” value is inactive: -7.68%. Take `COC(=O)c1cc(NC(=O)c2cc3sccc3n2Cc2ccc(Cl)cc2)cc(C(=O)OC)c1`: the “activity change, negative = inhibition” value was inactive: -14.6%. On to `O=C1NC(NS(=O)(=O)c2ccccc2)(C(F)(F)F)C(=O)N1c1ccc(F)cc1` (stereo not given), for which the “activity change, negative = inhibition” value was inactive: 14.1%. Turning to `Cc1cc(N2CCC(C(=O)N(CC(C)C)CC(C)C)CC2)n2nc(C)c(-c3ccc(Cl)cc3)c2n1`, the “activity change, negative = inhibition” value is inactive: -5.99%. With `O=C(c1cnn(-c2ccc(F)cc2)c1-n1cccc1)N1CCN(c2ccc(Cl)cc2)CC1`, the “activity change, negative = inhibition” value is inactive: 1.09%. `Fc1ccc(-n2ncc3c(Nc4cccc(Cl)c4)ncnc32)cc1`: the “activity change, negative = inhibition” value is inactive: 9.06%. Still for that read-out and setting: the result for `COc1ccccc1C1C=C(c2ccc(C(C)C)cc2)Nc2nnnn21` (stereo not given) reads inactive: -3.39%; that for `CSc1ncc(Cl)c(C(=O)N(Cc2ccc(C)cc2)C2CCS(=O)(=O)C2)n1` (stereo not given), inactive: -13%. Consider `Cc1cc(C)cc(OCc2cc(=O)n3c(-c4ccccc4)csc3n2)c1`, for which the “activity change, negative = inhibition” value was inactive: -11.6%. With `Cc1cccc(CNC(=O)c2ccc3c(c2)c(C)c(C)n3Cc2ccccc2)c1`, the “activity change, negative = inhibition” value was inactive: -12.9%. For the compound `COc1ccccc1NC(=O)Cn1c(=O)c(CNc2ccccc2)cc2cc(OC)c(OC)cc21`, the “activity change, negative = inhibition” value was inactive: -3.11%. As to `COc1cc(OC)cc(-c2nc3nc(C)c(CCC(=O)Nc4ccc(C)cc4C)c(C)n3n2)c1`, the “activity change, negative = inhibition” value is inactive: -0.278%. As to `CCN(CC)S(=O)(=O)c1ccc(C(=O)Nc2nc3ccc(Cl)cc3s2)cc1`, the “activity change, negative = inhibition” value is inactive: -5.88%. For the compound `O=C1CCc2cc(S(=O)(=O)NCc3ccccc3Cl)cc3c2N1CC3`, the “activity change, negative = inhibition” value was inactive: 0%.

`O=S(=O)(c1ccccc1)c1nnn2c1nc(NCc1ccc(Cl)cc1)c1sccc12`: the “activity change, negative = inhibition” value is inactive: -10.2%.

Take `COc1cccc(NC(=O)Cn2cc(S(=O)(=O)Cc3ccccc3F)c3ccccc32)c1`: the “activity change, negative = inhibition” value is inactive: -12.8%. Turning to `O=C(CCn1ccc2cc(S(=O)(=O)N3CCCC3)ccc21)NCc1ccccc1F`, the “activity change, negative = inhibition” value was inactive: 1.04%. On the same count and under the same terms, the figure for `CCn1nc(C)c2c(-c3ccccc3)cc(=O)n(C(C)C(=O)NCc3ccccc3OC)c21` (stereo not given) is inactive: -12.3%. Turning to `CC1CCCN(CCCNC(=O)c2ccc3c(c2)N(Cc2ccc(Cl)cc2)C(=O)c2ccccc2S3(=O)=O)C1` (stereo not given), the Potency is active: 13.1 µM. For `Cc1ccc(C)c(NC(=O)Cn2cc(S(=O)(=O)Cc3cccc(Cl)c3)c3ccccc32)c1`, the “activity change, negative = inhibition” value is inactive: -9.3%.

Take `CCc1ccc(NC(=O)CN2C(=O)CSc3ccc(S(=O)(=O)N(C)C)cc32)cc1`: the “activity change, negative = inhibition” value is inactive: -1%. On the same count and under the same terms, the figure for `O=C(NCc1ccccc1)c1ccc2c(c1)CCN2S(=O)(=O)c1ccc(Cl)cc1` is inactive: -3.69%.

With `COc1ccc2cc3c(N)nn(C(=O)c4ccccc4Cl)c3nc2c1`, the “activity change, negative = inhibition” value was inactive: -14.5%. Take `COc1ccc(-c2noc(CN(C(=O)C(C)Oc3ccc(C)cc3)C(C)C)n2)cc1` (stereo not given): the “activity change, negative = inhibition” value is inactive: -1.09%. For `CCn1cc(C(=O)NCCc2ccc(OC)c(OC)c2)c(=O)c2cc(S(=O)(=O)N(C)C3CCCCC3)ccc21`, the “activity change, negative = inhibition” value was inactive: 1.77%. Take `CCOc1ccc(NC(=O)N2CCN(c3ccc(Cl)c(Cl)c3)CC2)cc1`: the “activity change, negative = inhibition” value was inactive: 0%.

For the compound `CCc1ccc(NCc2cc3ccc(OC)cc3n(CC(=O)Nc3c(C)cc(C)cc3C)c2=O)cc1`, the “activity change, negative = inhibition” value was inactive: -1.74%. Regarding `CC(C)Oc1ccc(C(=O)N(Cc2ccc(N(C)C)cc2)C2CCS(=O)(=O)C2)cc1` (stereo not given), the “activity change, negative = inhibition” value was inactive: 3.45%.

As to `Cc1ccccc1CNC(=O)CCS(=O)(=O)c1cc2c3c(c1)CCN3C(=O)CC2`, the “activity change, negative = inhibition” value is inactive: 6.22%. On the same count and under the same terms, the result for `CCOc1cccc(CNC(=O)c2ccc(N3CCCC3)c(NC(=O)NCc3ccccc3)c2)c1` reads inactive: 14.1%.

On to `COc1ccc(Cl)cc1NC(=O)Cn1ccn(-c2cc(C)cc(C)c2)c(=O)c1=O`, for which the “activity change, negative = inhibition” value is inactive: 11.2%. Turning to `Cn1nnc2c(N3CCN(c4ccc(F)cc4)CC3)ncnc21`, the “activity change, negative = inhibition” value was inactive: 1.48%. Regarding `Cc1ccc(N2CCN(C(=O)c3cc4cc5ccc(C)cc5nc4s3)CC2C)cc1` (stereo not given), the “activity change, negative = inhibition” value was inactive: 5.4%. For the compound `Fc1ccc(-n2ncc3c(Nc4ccc5c(c4)OCCO5)ncnc32)cc1`, the “activity change, negative = inhibition” value is inactive: 8.93%. On the same count and under the same terms, the figure for `Cc1ccc(Nc2sc(C(=O)c3ccccc3)c(N)c2S(=O)(=O)c2ccccc2)cc1Cl` is inactive: -3.61%; for `COc1ccccc1N1CCN(C(=O)CCS(=O)(=O)c2ccc3c(c2)oc(=O)n3C)CC1` it is inactive: -4.93%; for `COc1ccc(-c2noc(CSc3nnc(C)n3-c3cccc(C)c3)n2)cc1` it is inactive: -7.3%. On the same count and under the same terms, the figure for `COc1cc(C(=O)NCCc2csc(-c3ccc(Cl)cc3)n2)cc(OC)c1OC` is inactive: 0.921%; for `COc1ccc(O)c(C2=Nc3ccccc3N=C(c3ccccc3)C2)c1` it is inactive: 7.96%.

Turning to `CNC(=O)c1ccc2c(c1)N(Cc1cc(C)ccc1C)C(=O)c1ccccc1S2`, the “activity change, negative = inhibition” value was inactive: -5.77%. The same measure, in the same setting: the result for `COc1ccc(CNC(=O)c2ccc(-c3nc(CSc4ccc(C)cc4)c(C)o3)cc2)c(OC)c1` reads inactive: -0.0106%. Take `Cc1cccc(CCNC(=O)c2cc3c(s2)-c2c(C)cccc2OC3)c1`: the “activity change, negative = inhibition” value was inactive: -2.99%. Turning to `CCCN1CCN(C(=O)Cn2c(-c3cccs3)cc3cc(F)ccc32)CC1`, the “activity change, negative = inhibition” value is inactive: -1.61%. For the compound `Cc1ccc2c(c1)N(C(=O)Nc1cccc3c1CCCC3)CCO2`, the “activity change, negative = inhibition” value was inactive: 0.351%. Turning to `O=C(NCCc1ccccc1)c1ccc(Nc2nc3ccccc3n3nnnc23)cc1`, the “activity change, negative = inhibition” value was inactive: -1.92%.
